Assay results from paper PMC9930429, “Wogonin attenuates the pathogenicity of Streptococcus pneumoniae by double‐target inhibition of Pneumolysin and Sortase A” (Journal of Cellular and Molecular Medicine, 2023).

Target: Sortase A (SrtA) (Streptococcus pneumoniae, UniProt Q8DPM3)
Assay: FRET peptidase assay, fluorescent peptide substrate
Type: biochemical
Conditions: wogonin 16-128 μg/mL; 5 μM SrtA; 10 μM substrate; 37 °C, 60 min

In the case of COc1c(O)cc(O)c2c(=O)cc(-c3ccccc3)oc12 [wogonin], the “SrtA peptidase activity (%)” value is reported as “the SrtA peptidase activity decreased in a gradient (Figure 3A)”.
